# Measured values: PubChem BioAssay AID1745853 (National Center for Advancing Translational Sciences (NCATS), 2022)
# Some of the results follow. Shown are side measurements of this screen, not its main read-out; they come without a call.
# Tests used:
# Experiment in all cases: Primary Screen for Target Class Profiling of Small Molecule Inhibitors of Methyltransferases
# [1] = molecular target: Glycine N-methyltransferase (Homo sapiens) (UniProt Q14749); conditions: purified enzyme, MTase-Glo SAH luminescence; measured here: GNMT inhibition; at 40 µM; stronger effect = lower value
# How it was run: (§1)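 Each enzyme was assayed with SAM and its substrate. SAH formation detected by MTase-Glo luminescence; single-point 40 uM screen[…].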
# [2] = molecular target: Guanidinoacetate N-methyltransferase (Homo sapiens) (UniProt Q14353); conditions: purified enzyme, MTase-Glo SAH luminescence; measured here: GAMT inhibition; at 40 µM; stronger effect = lower value
# How it was run: as §1
# [3] = molecular target: Histamine N-methyltransferase (Homo sapiens) (UniProt P50135); conditions: purified enzyme, MTase-Glo SAH luminescence; measured here: HNMT inhibition; at 40 µM; stronger effect = lower value
# How it was run: as §1
# [4] = molecular target: Nicotinamide N-methyltransferase (Homo sapiens) (UniProt P40261); conditions: purified enzyme, MTase-Glo SAH luminescence; measured here: NNMT inhibition; at 40 µM; stronger effect = lower value
# How it was run: as §1
# [5] = molecular target: Phenylethanolamine N-methyltransferase (Homo sapiens) (UniProt P11086); conditions: purified enzyme, MTase-Glo SAH luminescence; measured here: PNMT inhibition; at 40 µM; stronger effect = lower value
# How it was run: as §1
# % is scaled to controls: 0 for no effect and ±100 for the full control effect.
SMILES,"activity change, negative = inhibition [1] [%]","activity change, negative = inhibition [2] [%]","activity change, negative = inhibition [3] [%]","activity change, negative = inhibition [4] [%]","activity change, negative = inhibition [5] [%]"
O=C(CCSCc1ccco1)NNC(=O)N1Cc2ccccc2Oc2ccc(Cl)cc21,-11.9,3.16,-0.773,-8.9,3.96
O=C1CN(Cc2cccc(C(F)(F)F)c2)S(=O)(=O)c2ccccc2N1Cc1ccc(Cl)cc1,-0.461,4.76,-5.37,-5.33,-5.35
CC(C)NC(=O)CCc1nnc2n(Cc3ccc(Cl)cc3)c(=O)c3ccccc3n12,-1.49,0,7.24,8.71,-1.85
Cc1cc(C)cc(NC(=O)Cn2nc3n(CC(C)C)c(=O)c4ccc(C(=O)NC(C)C)cc4n3c2=O)c1,-0.48,0.473,-0.894,12.8,3.15
CC(C)Cn1c(=O)c2ccccc2n2c(=O)n(CC(=O)Nc3ccc(Cl)cc3)nc12,-2.88,2.67,-2.88,-8.85,-5.6
C/C(=C/CCC(CO)C1CCC2(C)C3CCC4C(C)(C)C(OC5OC(CO)C(O)C(O)C5O)CC(O)C45CC35CCC12C)COC1OC(CO)C(O)C(O)C1O (stereo not drawn),0,10.9,0.938,-4.98,6.4
CC1=C(/C=C/C(C)=C/C=C/C(C)=C/C(=O)Nc2ccc(O)cc2)C(C)(C)CCC1,-6.33,4.16,-3.3,-7.8,6.78
Cc1nnc2n1CCC(N(C)C(=O)NC1CCCC1)CC2 (stereo not drawn),-1.79,0.285,-0.213,-2.46,0.696
COc1cccc(CNC(=O)C(C)n2ccc3cc(S(=O)(=O)N4CCCCC4)ccc32)c1 (stereo not drawn),-0.2,5.65,1.99,-1.18,-1.05
CCOC(=O)c1cc2n(n1)CC(C)(C(=O)NC1CCCCCC1)N(c1cc(OC)cc(OC)c1)C2=O (stereo not drawn),-0.807,2.08,-7.54,-0.843,-1.34
COc1ccc(S(=O)(=O)NCc2nc(-c3ccc(OC)c(OC)c3)no2)cc1,-8.45,0.636,-7.71,-8.5,-7.77
CCCn1c(=O)c2ccc(C(=O)NCC(C)C)cc2n2c(=O)n(CC(=O)NC3CCCC3)nc12,4.83,0,10.4,0.598,0.737
CC(=O)OC1CCC2(C)C(CCC3(C)C2CC=C2C4C(C)C(C)CCC4(C)CCC23C)C1(C)C(=O)O (stereo not drawn),1.21,7.26,8.58,-8.04,5.04
O=C1c2ccccc2C(=O)c2cc(S(=O)(=O)Nc3ccc(Br)cc3)ccc21,-39.4,-2.19,-2.01,-9.37,-13.7
COc1ccc(CNC(=O)c2ncn3c2C(=O)N(C2CC2)C(C)(C(=O)NCc2ccc(C)cc2)C3)cc1 (stereo not drawn),-0.743,2.59,8.53,4.09,2.9
CCCNC(=O)NCCc1ncc(C)n1CC1CC1,0.693,2.67,-28.1,0.038,2.67
O=S(=O)(c1ccccc1)c1nnn2c1nc(NCc1ccccc1)c1cc(Cl)ccc12,2.68,0.393,5.41,-0.153,0.511
Cc1ccc(S(=O)(=O)c2nnn3c2nc(NC2CCCC2)c2ccccc23)cc1C,-2.13,0,-1.15,0.238,-5.55
CN=C(N)NCCCCC/C=C(/C)CC(C)C1OC(=O)C(C)C(O)/C=C/C(C)C(O)CC(O)C(C)C(O)CCC(C)C(O)CC2(O)OC(CC(OC(=O)CC(=O)O)CC(O)CC(O)C(C)C(O)/C(C)=C/CCC1C)CC(O)C2O (stereo not drawn),0.718,14.6,3.64,-1.14,-5.6

SMILES,"activity change, negative = inhibition [1] [%]","activity change, negative = inhibition [2] [%]","activity change, negative = inhibition [3] [%]","activity change, negative = inhibition [4] [%]","activity change, negative = inhibition [5] [%]"
COCCn1c(C)cc(C(=O)N2CCCCCCNC(=O)CC2)c1C,-3.94,-14,-2.08,-5.09,-2.47
NCCCCN(Cc1nc2ccccc2[nH]1)[C@H]1CCCc2cccnc21,-5.84,-8.84,-6.34,-19.7,-5.29
Cc1cc(C)c(CNC(=O)c2cccc(CCC(C)(C)O)c2)cn1,-8.21,-10.6,-8.38,-20,-12.4
CC1CC(C)CN(S(=O)(=O)c2ccc3c(c2)oc(=O)n3CC(=O)Nc2ccc(F)cc2)C1 (stereo not drawn),-5.79,0,1.08,-1.74,-31
CCC1c2ccc(C)n2CCN1C(=O)NCc1cccc(OC)c1 (stereo not drawn),-10.8,1.28,-7.32,-6.62,-8.27
O=S(=O)(c1cccc2ccccc12)n1ccc2ccc(N3CCN4CCCC4C3)cc21 (stereo not drawn),4.89,-7.02,-14.8,-29.9,-8.15
CN1CCN(CCCNC(=O)c2cc3n(n2)CC(C)(C(=O)NC2CCCC2)N(C)C3=O)CC1 (stereo not drawn),0.907,1.89,-6.28,0.507,-2.65
CCOC(=O)c1cc2n(n1)CC(C)(C(=O)NCc1ccc(F)cc1)N(Cc1ccc(Cl)cc1)C2=O (stereo not drawn),-4.04,2.85,-1.74,-5.42,-3.92
CC(C)Cn1c(=O)c2cc(F)ccc2n2c(SCc3ccccc3Cl)nnc12,-6.1,0,5.24,-13.4,1.34
O=C1CCN(C(=O)[C@H](Cc2ccccc2)NC(=O)c2ccoc2)CCCOCCN1,-6.29,-4.95,-2.21,-10.9,-20
CS(=O)(=O)N1C[C@@H](Oc2ccccc2)C[C@H]1C(=O)N1CCCC1,-0.794,1.55,0.474,-5.03,13.6
CC1(C(=O)NC2CCCCCCC2)Cn2c(ccc2-c2ccco2)C(=O)N1C1CCCC1 (stereo not drawn),-7.59,2.57,-1.85,-15.9,-4.73
O=C(CCc1c[nH]c2ccccc12)N1CC(N(Cc2ccccc2)C2CCOCC2)C1,-5.42,-5.8,0.506,-13,8.46
COc1ccccc1NC(=O)N1CCN2C(=O)NC[C@H]2C1,-1.97,-1.12,-0.658,-8.53,-2.47
CC/C=C(\C(=O)N[C@H]1C(=O)N2C(C(=O)OCOC(=O)C(C)(C)C)=C(COC(N)=O)CS[C@H]12)c1csc(N)n1,,-9.12,,-20.5,-6.19
CN1CCCC2(CC1)CCN(C(=O)c1ccc(C#CC(C)(C)O)cc1)CC2,-4.45,-8,-12.7,-16.1,-4.96
CC(C)(C)Nc1nc2cc(Cl)c(Cl)cc2nc1S(C)(=O)=O,-8.79,-25.5,0.416,-35.7,-11
Nc1nc2c(ncn2[C@@H]2O[C@@H]3COP(=O)(O)O[C@H]3[C@H]2O)c(=O)[nH]1,1.19,5.26,10.2,-7.76,3.96
